Numbering of substitutions follows the chain as printed; changes in the protein carry UniProt numbers. The list shows a part of the results.
B1: UACGGUG (DNA:RNA)
RNA: GGGAGACCGGAAUUCAGAUUGUCCUACGGUGUUAAAUCCCGUCGUAGCCACCA
DNA 1: CAATCTGAATTCCGGTCTCCC
DNA 2: TGGTGGCTACGACGGGATT
B2: GAGAAAG (DNA:RNA)
RNA: B1 RNA with U25G, C27G, G28A, G29A, U30A
DNA 1: CAATCTGAATTCCGGTCTCCC
DNA 2: TGGTGGCTACGACGGGATT
B3: UCCGCUU (DNA:RNA)
RNA: B1 RNA with A26C, G29C, G31U
DNA 1: CAATCTGAATTCCGGTCTCCC
DNA 2: TGGTGGCTACGACGGGATT
B4: UUAAUGC (DNA:RNA)
RNA: B1 RNA with A26U, C27A, G28A, G29U, U30G, G31C
DNA 1: CAATCTGAATTCCGGTCTCCC
DNA 2: TGGTGGCTACGACGGGATT
B5: AGGAACU (DNA:RNA)
RNA: GGGAGACCGGAAUUCAGAUUGUCCAGGAACUUUAAAUCCCGUCGUAGCCACCA
DNA 1: CAATCTGAATTCCGGTCTCCC
DNA 2: TGGTGGCTACGACGGGATT
B6: UGCCAUC (DNA:RNA)
RNA: B1 RNA with A26G, G28C, G29A, G31C
DNA 1: CAATCTGAATTCCGGTCTCCC
DNA 2: TGGTGGCTACGACGGGATT
B7: AGGGGCG (DNA:RNA)
RNA: B5 RNA with A28G, A29G, U31G
DNA 1: CAATCTGAATTCCGGTCTCCC
DNA 2: TGGTGGCTACGACGGGATT
B8: GGGUGUU (DNA:RNA)
RNA: B5 RNA with A25G, A28U, A29G, C30U
DNA 1: CAATCTGAATTCCGGTCTCCC
DNA 2: TGGTGGCTACGACGGGATT
B9: GAUCCCA (DNA:RNA)
RNA: B5 RNA with A25G, G26A, G27U, A28C, A29C, U31A
DNA 1: CAATCTGAATTCCGGTCTCCC
DNA 2: TGGTGGCTACGACGGGATT
B10: GUACCGU (DNA:RNA)
RNA: B5 RNA with A25G, G26U, G27A, A28C, A29C, C30G
DNA 1: CAATCTGAATTCCGGTCTCCC
DNA 2: TGGTGGCTACGACGGGATT
B11: GAAUAGA (DNA:RNA)
RNA: B5 RNA with A25G, G26A, G27A, A28U, C30G, U31A
DNA 1: CAATCTGAATTCCGGTCTCCC
DNA 2: TGGTGGCTACGACGGGATT
B12: CUACGAU (DNA:RNA)
RNA: B5 RNA with A25C, G26U, G27A, A28C, A29G, C30A
DNA 1: CAATCTGAATTCCGGTCTCCC
DNA 2: TGGTGGCTACGACGGGATT
B13: GAAUUAU (DNA:RNA)
RNA: B5 RNA with A25G, G26A, G27A, A28U, A29U, C30A
DNA 1: CAATCTGAATTCCGGTCTCCC
DNA 2: TGGTGGCTACGACGGGATT
B14: GUUCGCC (DNA:RNA)
RNA: B5 RNA with A25G, G26U, G27U, A28C, A29G, U31C
DNA 1: CAATCTGAATTCCGGTCTCCC
DNA 2: TGGTGGCTACGACGGGATT
B15: GCCUCGC (DNA:RNA)
RNA: B1 RNA with U25G, A26C, G28U, G29C, U30G, G31C
DNA 1: CAATCTGAATTCCGGTCTCCC
DNA 2: TGGTGGCTACGACGGGATT
B16: ACUAAUC (DNA:RNA)
RNA: B5 RNA with G26C, G27U, C30U, U31C
DNA 1: CAATCTGAATTCCGGTCTCCC
DNA 2: TGGTGGCTACGACGGGATT
B17: GCUAGGU (DNA:RNA)
RNA: B5 RNA with A25G, G26C, G27U, A29G, C30G
DNA 1: CAATCTGAATTCCGGTCTCCC
DNA 2: TGGTGGCTACGACGGGATT
B18: ACUAUAU (DNA:RNA)
RNA: B5 RNA with G26C, G27U, A29U, C30A
DNA 1: CAATCTGAATTCCGGTCTCCC
DNA 2: TGGTGGCTACGACGGGATT
B19: UGCGCCU (DNA:RNA)
RNA: B5 RNA with A25U, G27C, A28G, A29C
DNA 1: CAATCTGAATTCCGGTCTCCC
DNA 2: TGGTGGCTACGACGGGATT
B20: UGGAUGU (DNA:RNA)
RNA: B5 RNA with A25U, A29U, C30G
DNA 1: CAATCTGAATTCCGGTCTCCC
DNA 2: TGGTGGCTACGACGGGATT
B21: UGGUGGU (DNA:RNA)
RNA: B5 RNA with A25U, A28U, A29G, C30G
DNA 1: CAATCTGAATTCCGGTCTCCC
DNA 2: TGGTGGCTACGACGGGATT
B22: AGUUGGG (DNA:RNA)
RNA: B5 RNA with G27U, A28U, A29G, C30G, U31G
DNA 1: CAATCTGAATTCCGGTCTCCC
DNA 2: TGGTGGCTACGACGGGATT
B23: ACGCCUC (DNA:RNA)
RNA: B5 RNA with G26C, A28C, A29C, C30U, U31C
DNA 1: CAATCTGAATTCCGGTCTCCC
DNA 2: TGGTGGCTACGACGGGATT
B24: ACUAGAG (DNA:RNA)
RNA: B5 RNA with G26C, G27U, A29G, C30A, U31G
DNA 1: CAATCTGAATTCCGGTCTCCC
DNA 2: TGGTGGCTACGACGGGATT
B25: AUACCAA (DNA:RNA)
RNA: B5 RNA with G26U, G27A, A28C, A29C, C30A, U31A
DNA 1: CAATCTGAATTCCGGTCTCCC
DNA 2: TGGTGGCTACGACGGGATT
B26: AUCCCUG (DNA:RNA)
RNA: B1 RNA with U25A, A26U, G28C, G29C
DNA 1: CAATCTGAATTCCGGTCTCCC
DNA 2: TGGTGGCTACGACGGGATT
B27: GGGAGCA (DNA:RNA)
RNA: B5 RNA with A25G, A29G, U31A
DNA 1: CAATCTGAATTCCGGTCTCCC
DNA 2: TGGTGGCTACGACGGGATT
B28: AAUGUGU (DNA:RNA)
RNA: B5 RNA with G26A, G27U, A28G, A29U, C30G
DNA 1: CAATCTGAATTCCGGTCTCCC
DNA 2: TGGTGGCTACGACGGGATT
B29: CGGGGUC (DNA:RNA)
RNA: B1 RNA with U25C, A26G, C27G, G31C
DNA 1: CAATCTGAATTCCGGTCTCCC
DNA 2: TGGTGGCTACGACGGGATT
B30: ACUUGAC (DNA:RNA)
RNA: B5 RNA with G26C, G27U, A28U, A29G, C30A, U31C
DNA 1: CAATCTGAATTCCGGTCTCCC
DNA 2: TGGTGGCTACGACGGGATT
B31: AUAGCUU (DNA:RNA)
RNA: B5 RNA with G26U, G27A, A28G, A29C, C30U
DNA 1: CAATCTGAATTCCGGTCTCCC
DNA 2: TGGTGGCTACGACGGGATT

Molecular target: T1, RBFOX1 RRM (Homo sapiens, UniProt Q9NWB1 109-208)
T1 sequence: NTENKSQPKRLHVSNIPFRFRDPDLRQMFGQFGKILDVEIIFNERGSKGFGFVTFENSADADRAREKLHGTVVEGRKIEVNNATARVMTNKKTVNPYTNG
Test: EMSA; HiTS-Eq, 1 nM pool, 10 min; buffer printed only for the single-RNA assays: 10 mM Tris pH 7.5, 150 mM NaCl, 3.4 mM EDTA, 0.001% NP-40, 30 C
Details: tags: His6 N-terminal (pET28a); label: 5' 32P
Outline: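 Purified RbFox RRM, wild type or mutant, was incubated for 10 min in 50 µL with 1 nM of a 5′-radiolabelled RNA pool carrying 7 randomized nucleotides, whose flanks were annealed to DNA oligonucleotides, over a series of increasing protein concentrations. Unbound RNA was resolved on 8% native PAGE, cut out, reverse-transcribed, barcoded by PCR and sequenced on an Illumina HiSeq 2500. Relative association constants were derived from changes in read counts for each RNA species versus the control reaction and normalised to the cognate motif.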

Compared with B1, B2 is lower in binding signal: 0.0204 KA relative to UGCAUGU for the first, 0.0113 KA relative to UGCAUGU for the second.

First: B3
Second: B4
The binding signal of the first is lower: 0.0108 KA relative to UGCAUGU for the first, 0.0138 KA relative to UGCAUGU for the second.

Compared with B5, B6 is higher in binding signal: 0.0115 KA relative to UGCAUGU for the first, 0.016 KA relative to UGCAUGU for the second.

Compared with B7, B8 is lower in binding signal: 0.0278 KA relative to UGCAUGU for the first, 0.0233 KA relative to UGCAUGU for the second.

First: B9
Second: B10
The binding signal of the first is lower: 0.00662 KA relative to UGCAUGU for the first, 0.0109 KA relative to UGCAUGU for the second.

First: B11
Second: B12
The binding signal of the first is higher: 0.00829 KA relative to UGCAUGU for the first, 0.00513 KA relative to UGCAUGU for the second.

Compared with B13, B14 is higher in binding signal: 0.00618 KA relative to UGCAUGU for the first, 0.0212 KA relative to UGCAUGU for the second.

Compared with B15, B16 is lower in binding signal: 0.011 KA relative to UGCAUGU for the first, 0.00236 KA relative to UGCAUGU for the second.

Compared with B17, B18 is lower in binding signal: 0.0175 KA relative to UGCAUGU for the first, 0.000857 KA relative to UGCAUGU for the second.

Compared with B19, B20 is higher in binding signal: 0.0169 KA relative to UGCAUGU for the first, 0.0494 KA relative to UGCAUGU for the second.

First: B21
Second: B22
The binding signal of the first is higher: 0.022 KA relative to UGCAUGU for the first, 0.00622 KA relative to UGCAUGU for the second.

First: B23
Second: B24
The binding signal of the first is lower: 0.00749 KA relative to UGCAUGU for the first, 0.00827 KA relative to UGCAUGU for the second.

First: B25
Second: B26
The binding signal of the first is lower: 0.000392 KA relative to UGCAUGU for the first, 0.00611 KA relative to UGCAUGU for the second.

First: B27
Second: B28
The binding signal of the first is higher: 0.0305 KA relative to UGCAUGU for the first, 0.0115 KA relative to UGCAUGU for the second.

First: B29
Second: B30
The binding signal of the first is higher: 0.0407 KA relative to UGCAUGU for the first, 0.0078 KA relative to UGCAUGU for the second.

With B31 the binding signal was 0.00333 KA relative to UGCAUGU.

From article PMC9911399, “Two distinct binding modes provide the RNA-binding protein RbFox with extraordinary sequence specificity”
